Measured values reported in PubChem BioAssay AID2675 (National Center for Advancing Translational Sciences (NCATS), 2010).
Screen size: about 280,000 compounds; about 100 (0.036%) were called active. Inconclusive results, whose numbers are uncertain, are shown with a selection of clear calls. Calls come from the whole dose curve; as a rule, active = well fitted inhibition curve with a large enough effect in the signal ratio, with a control signal flat (not every such curve was filed as active); inconclusive = small, poorly fitted or top-dose-only effect, or effect the other way, or a change in a side signal; inactive = no such curve, though single readings can be large or run the other way; the % refers to the signal ratio. A potency beside an inconclusive call is a rough fit, not a confirmed value. “Side channel” marks fits to a control or component signal instead of the main read-out.

Biological target: Muscleblind-like protein 1 (Homo sapiens) (UniProt Q9NR56)
Assay: qHTS Assay for Inhibitors of MBNL1-poly(CUG) RNA binding
Conditions: TR-FRET MBNL1-His/biotin-(CUG)12 binding, 665/545 ratio; activity change, negative = inhibition: at 57.5 µM (top of the series)
How it was run: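 Ratiometric TR-FRET (665 over 545 nm, excitation 340 nm) tracks disruption of MBNL1-His/biotin-(CUG)12 complex after 60 min at room temperature, with compounds at 92 nM to 58 uM final.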
% is set by controls: 0 for no effect and ±100 for the full control effect; potency is the fitted concentration of half-maximal effect; tags give direction and shape of the fitted curve or compound fluorescence and quenching.

UniProt Q9NR56, sequence (Q9NR56 whole entry, looked up): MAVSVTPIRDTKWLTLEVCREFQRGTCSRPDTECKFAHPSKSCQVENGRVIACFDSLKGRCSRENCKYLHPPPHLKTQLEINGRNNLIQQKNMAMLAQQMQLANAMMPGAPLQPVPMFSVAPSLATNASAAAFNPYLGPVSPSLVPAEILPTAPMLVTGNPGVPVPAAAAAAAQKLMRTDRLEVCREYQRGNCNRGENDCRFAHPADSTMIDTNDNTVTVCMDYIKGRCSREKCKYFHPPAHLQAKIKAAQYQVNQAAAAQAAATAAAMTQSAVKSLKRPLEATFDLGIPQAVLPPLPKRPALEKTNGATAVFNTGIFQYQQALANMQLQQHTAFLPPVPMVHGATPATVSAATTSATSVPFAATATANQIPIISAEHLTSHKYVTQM

SMILES | activity change, negative = inhibition | Potency
CSc1ccc(CN2CCC(CO)(CCOc3ccccc3)CC2)cc1 | inactive: 0.569% | 
CCCOC(=O)c1ccc(NC(=O)c2ccoc2C)cc1 |  | inconclusive: 39.8 µM [inhibitor, single point]
CC(=NCCCn1ccnc1)C1=C(O)c2ccccc2C1=O |  | inconclusive: 25.1 µM [quencher, side channel, partial curve]
N=c1c(C(=O)NC2CCCC2)cc2c(=O)n3ccccc3nc2n1C1CCCC1 |  | inconclusive: 11.2 µM [quencher, side channel, partial curve]
CN1CCc2c(sc3c2C(=O)NC(c2ccc(-c4cccc(Cl)c4)o2)N3)C1 (stereo not given) |  | inconclusive: 15.8 µM [quencher, side channel, partial curve]
O=C1C(Cl)=C(N2CCN(c3ccccc3[N+](=O)[O-])CC2)C(=O)c2ccccc21 |  | inconclusive: 15.8 µM [quencher, side channel, partial curve]
Cc1cc(C=C2C(=O)c3ccccc3C2=O)c(C)n1-c1cccc(C(=O)O)c1 |  | inconclusive: 22.4 µM [quencher, side channel, partial curve]
O=C(OCc1c(F)cccc1Cl)c1cnc2ccccc2n1 |  | inconclusive: 6.31 µM [quencher, side channel, partial curve]
CSC1=N/C(=C\C=C\c2cccs2)C(=O)S1 |  | inconclusive: 10 µM [quencher, side channel, partial curve]
NS(=O)(=O)c1cccc2c1c([N+](=O)[O-])cc1nc(O)c(O)nc12 |  | inconclusive: 12.6 µM [quencher, side channel, partial curve]
CCOC(=O)c1nn(-c2ccc(C)c(C)c2)c(=O)c(C#N)c1C |  | inconclusive: 4.47 µM [quencher, side channel, partial curve]
COCCNC(=O)C1=NOC(Cn2cc(C#N)c(=O)n(C)c2=O)C1 (stereo not given) | inactive: -4.3% | 
N=c1oc2ccccc2cc1C(=O)NCc1ccccc1 |  | inconclusive: 12.6 µM [quencher, side channel, partial curve]
CCCC(=O)Nc1sc2c(c1C(=O)OCC)CC(C)(C)OC2 | inactive: 1.96% | 
O=C(O)c1cc(-c2cccc([N+](=O)[O-])c2)nc2ccccc12 |  | inconclusive: 11.2 µM [quencher, side channel, partial curve]
CC(=O)c1cccc(NC(=S)NNC(=O)c2ccc(C)c([N+](=O)[O-])c2)c1 |  | inconclusive: 39.8 µM [quencher, side channel, single point]
O=C(COC(=O)/C=C/c1cccc([N+](=O)[O-])c1)NCC1CCCO1 (stereo not given) |  | inconclusive: 15.8 µM [quencher, side channel, partial curve]
O=C(c1cnn2c(C(F)F)cc(-c3ccccc3)nc12)N1CCOCC1 |  | inconclusive: 0.794 µM [quencher, side channel, full curve, poor fit]
CCOC(=O)c1cc(C(=O)OCC)c2ccccn2c1=O |  | inconclusive: 28.2 µM [quencher, side channel, partial curve]
CC(C)C(=O)Nc1ccc(NC(=O)c2ccc([N+](=O)[O-])cc2Cl)cc1 |  | inconclusive: 11.2 µM [quencher, side channel, partial curve]

SMILES | activity change, negative = inhibition | Potency
COc1cc2cc(CN(CCN3CCOCC3)C(=O)Nc3ccc(F)cc3)c(=O)[nH]c2cc1OC | inactive: -2.45% | 
COc1ccc(Cc2nnc(SCC(=O)NCc3ccco3)o2)cc1 | inactive: -0.97% | 
Cc1cc(Cl)ccc1OC(C)C(=O)Nc1ccc([N+](=O)[O-])cn1 (stereo not given) |  | inconclusive: 14.1 µM [quencher, side channel, partial curve]
Cc1cc(C)c(NC(=O)COC(=O)c2cc([N+](=O)[O-])ccc2N2CCOCC2)c(C)c1 |  | inconclusive: 12.6 µM [quencher, side channel, partial curve]
CCOc1cccc(NC(=O)C2CC(=O)NC(=Nc3ccccc3)S2)c1 (stereo not given) | inactive: -7.31% | 
CSCC[C@H](NC(=O)OC(C)(C)C)c1nnc(SCC=C(C)C)o1 | inactive: 2.32% | 
COc1ccc(NC2CCCN(C(=O)CCOc3ccccc3)C2)cc1 (stereo not given) | inactive: 7.94% | 
Fc1ccc(-c2ccnn2-c2ccccc2)cc1 | inactive: -10.5% | 
COc1cc(Nc2ccc(S(N)(=O)=O)cc2)c([N+](=O)[O-])nc1[N+](=O)[O-] |  | inconclusive: 11.2 µM [quencher, side channel, partial curve]
CCOC(=O)/C(C#N)=C/c1c(N2CCN(C)CC2)nc2ccccn2c1=O |  | inconclusive: 14.1 µM [quencher, side channel, partial curve]
Cc1ccc(/C=C2/C(=O)N(c3ccccc3)C(=S)N2C)o1 |  | inconclusive: 39.8 µM [quencher, single point]
CN1CCc2c(sc3c2C(=O)NC(c2cccs2)N3)C1 (stereo not given) |  | inconclusive: 0.891 µM [quencher, side channel, full curve, poor fit]
CC(=O)OC1=C(C#N)Cn2ccc3cccc1c32 |  | inconclusive: 20 µM [quencher, side channel, partial curve]
Cc1ccc(NC(=S)NCCO)c(C)c1 | inactive: 2.8% | 
CCCC(=O)Nc1nn(CCC)c2nc3ccccc3cc12 |  | inconclusive: 15.8 µM [quencher, partial curve]
O=C(NCc1ccco1)C(NS(=O)(=O)c1cccc2nsnc12)c1ccccc1 (stereo not given) |  | inconclusive: 15.8 µM [quencher, side channel, partial curve]
COC(=O)c1ccc(Nc2ncnc3c2cnn3-c2cccc(C)c2)cc1 | inactive: 1.02% | 
O=[N+]([O-])c1ccc(Cn2cc(-c3cccc(C(F)(F)F)c3)nn2)cc1 |  | inconclusive: 31.6 µM [quencher, side channel, partial curve]
O=C(NCCc1ccccc1)c1cc2ncc(Br)cn2n1 |  | inconclusive: 79.4 µM [inhibitor, single point]
CCCc1nc2sc3c(c2c(=O)n1NC(=O)CCC(=O)O)CCCC3 |  | inconclusive: 10 µM [quencher, side channel, partial curve, poor fit]
